Laboratory results reported in PubChem BioAssay AID1508624 (National Center for Advancing Translational Sciences (NCATS), 2021).
The whole screen tested about 48,000 compounds, of which about 120 (0.25%) were called active. About 4% were inconclusive and are not listed. Calls come from the whole dose curve; as a rule, active = well fitted activation curve with a large enough effect; inconclusive = small, poorly fitted or top-dose-only effect, or another doubt; inactive = no such curve, though single readings can be large or run the other way. The list shows a part of the results.

Assay: Primary qHTS for Identification of Small Molecule Activators of Huntingtin-Antisense Promoter Activity; note: nearly all actives have a fitted effect of over 55% in size
Details: HEK293 HTT-AS promoter firefly luciferase reporter (activity 0% = vehicle and -100% = no light), 24 h; series mostly up to 57.5 µM; activity change, positive = activation: at the top concentration
Outline: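 Luminescence was read after Dual-Glo reagent and a 10 min room-temperature incubation. Values were normalized to vehicle (0% activity) and zero RLU (-100% activity). Reporter HEK293 cells had been exposed to compounds (up to 57.5 uM final) for 24 h.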

Activity change, positive = activation, inactive:
CCC(=O)N1CCc2cc(S(=O)(=O)NC(C(=O)NCc3ccc(OC)cc3)C(C)C)ccc21 (stereo unspecified) 2.62%, COc1cccc(N2C(=O)CSC23C(=O)N(CC(=O)Nc2cc(C)ccc2C)c2ccccc23)c1 (stereo unspecified) -9.81%, COc1ccc(OC)c(CCNC(=O)CCCc2nnc3n(C)c(=O)c4sccc4n23)c1 7.85%, COc1ccc(CCNc2nc3c(c(=O)n(C)c(=O)n3C)n2Cc2ccc(F)cc2)cc1OC -41%, CCOC(=O)c1cc2c(=O)n3ccccc3nc2n(Cc2ccco2)c1=NC(=O)c1cc(C)cc(C)c1 -33.6%, COC(=O)c1ccc(NC(=O)c2nn(C)c3c2CS(=O)(=O)c2ccccc2-3)cc1 -14.3%, COc1ccc2[nH]cc(CCNC(=O)Nc3ccccc3C)c2c1 -16.4%, Cc1cc(C)c(NC(=O)c2sc3nc(C)cc(C)c3c2N)c(C)c1 -37.7%, COc1ccc(C)cc1NC(=O)CN1CCN(CC(=O)Nc2ccccc2F)CC1 8.49%, Cc1ccc2sc(N3CCN(C(=O)C4COc5ccccc5O4)CC3)nc2c1C (stereo unspecified) -19.4%, O=C(Nc1c(C(=O)N2CCN(c3ccc(F)cc3)CC2)oc2ccccc12)c1ccco1 -17.1%, COc1ccc(CCNC(=O)c2ccc(CS(=O)(=O)c3ccc(C)cc3)o2)cc1OC -31.8%, COc1cccc(N2CCN(S(=O)(=O)c3ccc(-c4cnc(C5CC5)o4)cc3)CC2)c1 -15.6%, CCOC(=O)C1CCCN(CCC(=O)Nc2ccc(OC)cc2OC)C1 (stereo unspecified) -13.1%, Cc1cccc(-n2ccnc2SCC(=O)Nc2ccccc2C(F)(F)F)c1 -15.1%, O=C(CSc1nc2ccccc2n1Cc1ccc(F)c(Cl)c1)N1CCN(c2ccc(F)cc2)CC1 -26.1%, COc1ccc(CNC(=O)CCc2c(C)nc3c(c2C)c(=O)n(C)c(=O)n3C)cc1 -6.08%, CCn1cc(C(=O)NCCc2ccccc2)c(=O)c2cc(S(=O)(=O)N3CCOCC3)ccc21 -12.8%, CCCc1nn2c(=O)cc(COC(=O)c3ccc(NC(=O)c4cccs4)cc3)nc2s1 -33.2%, CCc1ccc(NC(=O)CSC2=Nc3ccccc3C3=NC(CCC(=O)NCc4cccs4)C(=O)N23)cc1 (stereo unspecified) 9.37%, Cc1cccc(-n2cc(-c3ccccc3)nc2SCC(=O)Nc2ccccc2Cl)c1 -15.3%, Cc1ccc(C)c(NC(=O)C(C)N(c2ccccc2)S(C)(=O)=O)c1 (stereo unspecified) -9.69%, Cc1oc2ncn(CC(C)C)c(=O)c2c1C(=O)Nc1ccc(Cl)cn1 4.22%, O=C(NCc1ccccc1Cl)C1CCCN(c2nc3ccccc3n3cccc23)C1 (stereo unspecified) -31.6%, Cc1ccc(C)c(S(=O)(=O)NCC(c2ccc(N(C)C)cc2)N2CCOCC2)c1 (stereo unspecified) -16.5%, CCOc1ccc(CNCCNC(=O)c2nonc2N)cc1 -17.3%, COc1ccc(-n2c(-c3ccc(Cl)cc3)cc3c2CC(C)(C)CC3=O)c(OC)c1 -31.9%, CC1=C(C(=O)Nc2ccc(C)cc2C)C(c2ccc(C(C)C)cc2)n2nc(C(F)(F)F)nc2N1 (stereo unspecified) -32.6%, CCOC(=O)c1sc(NC(=O)c2nc(SC)ncc2Cl)c(C(=O)OCC)c1C 14%, COc1ccc(NC(=O)Nc2cn(CC(C)C)c(=O)c3ccccc23)c(OC)c1 -16.5%, O=C1C2=C(Nc3ccccc3SC2c2c(F)cccc2Cl)c2ccccc21 (stereo unspecified) 0.12%, O=C(NCCc1ccc(F)cc1)C(=O)NCC(c1cccs1)S(=O)(=O)c1cccs1 (stereo unspecified) -44.1%, COc1ccc(-c2cc(-c3ccccc3)nc3c2COc2ccc(Cl)cc2-3)cc1 1.06%, Cc1oc2ncn(C)c(=O)c2c1C(=O)N(C)c1ccccc1F -0.227%, CCN1C(=O)C(O)(c2c(C)[nH]c3ccccc23)c2ccccc21 (stereo unspecified) -6.83%, COc1ccc(NC(=O)CSC2=Nc3ccccc3C3=NC(CCC(=O)NCCc4ccccc4)C(=O)N23)cc1 (stereo unspecified) -5.36%, CC(C)(C)OC(=O)N1CCC(c2c(C(=O)N3CCN(C4CCCCC4)CC3)cnn2-c2cccc(Cl)c2)CC1 -23.5%, COC(=O)c1ccc(NS(=O)(=O)c2ccc3[nH]c4c(c3c2)CCCCC4)cc1 -30.3%, Cn1cc[nH]c1=S -0.826%, CCOC(=O)N1CCC(NC(=O)c2cnn(-c3cccc(C)c3)c2-n2cccc2)CC1 -17.1%, CC(=O)N1CCCc2cc(S(=O)(=O)N3CCC(C(=O)NC4CCCCC4)CC3)ccc21 -23.6%, CCc1nn(CC(=O)NCc2cccc(OC)c2OC)c(=O)c2cc3occc3n12 -4.77%, Cc1ccc(C(=O)COC(=O)C(Cc2c[nH]c3ccccc23)NC(=O)c2ccc(Br)cc2)cc1 (stereo unspecified) 3.88%, O=C(NCCCO)C(=O)Nc1c2c(nn1-c1ccc(F)cc1)CSC2 -9.94%, Cc1nnc(N2CCC(C(=O)NCc3ccc(N(C)C)cc3)CC2)c2nn(-c3ccccc3)c(C)c12 -17%, COc1ccc(NC(=O)C2=C(C)Nc3nc(SC)nn3C2c2cc(OC)ccc2OC)cc1 (stereo unspecified) -7.41%, O=C(CSc1nc2ccccc2n1Cc1cccc(Cl)c1)N1CCN(c2ccc(F)cc2)CC1 -18.5%, COc1ccc(OC)c(CNC(=O)Cn2nc(C)c3c(C)n(-c4ccccc4)nc3c2=O)c1 -5.26%, O=C(Nc1ccc(Cl)cc1)c1ccc2c(c1)N(Cc1ccccc1)C(=O)c1ccccc1S2(=O)=O -27.2%, Cc1cc2oc(C(=O)Nc3cccc(-c4nc5ccccc5o4)c3)c(C)c2cc1Cl -9.09%, CN(CC(=O)Nc1cccc(C#N)c1)S(=O)(=O)c1cc2c(cc1Cl)NC(=O)CO2 -29.4%, CCOc1ccccc1CNC(=O)CC(C)n1ccc(C)n1 (stereo unspecified) -12.8%, Cc1cccc(C)c1NC(=O)c1ccc2nc(CCc3ccccc3)oc2c1 -28%, CNC(=O)c1c(NC(=O)c2cc(=O)c3ccccc3o2)sc2c1CCC2 3.2%, CCCCNC(=O)CSc1c2c(nc3ccc(Cl)cc13)CCCC2 -13.6%, Cn1c(=O)c2sccc2n2c(CCCC(=O)Nc3ccc(F)c(F)c3)nnc12 -2.68%, COc1cccc(-c2nc(S(=O)(=O)c3ccccc3)c(NCc3ccccc3)o2)c1 10.9%, COc1cccc(-c2cc(C(F)(F)F)nc(NCc3ccc(F)cc3)n2)c1 -32.9%, COc1ccc(CCNC(=O)c2ccc3c(c2)nc2n3CCOC2)cc1OC -18%, CC(C)c1ccc(NC(=O)CCS(=O)(=O)c2ccc(Br)s2)cc1 -36.1%, CC1=C(C(=O)Nc2ccccc2)C(c2ccncc2)n2nc(SCc3ccccc3)nc2N1 (stereo unspecified) -9.13%, COCCCNC(=O)c1c(C)nn(-c2ccc(F)cc2)c1-n1cccc1 -4.88%, O=C(NCCS(=O)(=O)N1CCN(c2ccc(F)cc2)CC1)c1cc(=O)c2ccccc2o1 2.37%, COc1ccccc1N1CCN(S(=O)(=O)c2cc3[nH]c(=O)c(=O)[nH]c3cc2C)CC1 -5.62%, CSc1cccc(Nc2cc(C(=O)NCCCN(Cc3ccccc3)C(C)C)c3ccccc3n2)c1 -70.7%, Cc1ccc(CCNc2ncnc3onc(C)c23)cc1 -35.8%, Cc1ccc(C)c(NC(=O)C(Cc2ccccc2)N2Cc3ccccc3C2=O)c1 (stereo unspecified) -19.3%, Cc1ccc2occ(CC(=O)N(Cc3ccc(N(C)C)cc3)C3CCS(=O)(=O)C3)c2c1 (stereo unspecified) -18%, CCOc1ccc(CNC(=O)CCC(=O)N2CCSc3ccccc32)cc1 -8.54%, Cc1cc2c(cc1S(=O)(=O)N(C)CC(=O)Nc1cccc(C#N)c1)OCC(=O)N2 -16%, CC1=Nc2cc(C(=O)NC3CCCC3)ccc2Sc2ccc(Br)cc21 -41.9%, CCOC(=O)c1cccc(NC(=O)CCn2nc(C)c3c(C)n(-c4ccccc4)nc3c2=O)c1 0%, COCCCNC(=O)C1CCCN(S(=O)(=O)c2ccc3c(c2)oc(=O)n3C)C1 (stereo unspecified) -18%, CCN(CC)c1ccc(NC(=O)CN2CCN(CC(=O)Nc3ccccc3OC)CC2)cc1 -28.8%, COc1ccccc1CNC(=O)c1ccc(CN2CC(=O)N3CCCCC3C2=O)cc1 (stereo unspecified) -11.6%, Cc1ccc(C)c(NC(=O)N2CCC(N3CCN(Cc4ccc(F)cc4)C(=O)C3=O)CC2)c1 -10.4%, COc1ccccc1C(=O)NCC1(N2CCN(C)CC2)CCCCC1 -10.6%, Cc1ccccc1Nc1cc(C(=O)NC2CCCCC2)c2ccccc2n1 1.62%, CCOCCCn1c(SCC(=O)NCCCOC)nc2c(sc3ccccc32)c1=O 0%, CCOCCCNC(=O)c1c[nH]c2ccc(S(=O)(=O)Nc3cccc(Cl)c3C)cc2c1=O -27.1%, CCOC(=O)N1CCc2c(sc3c2c(=O)n(-c2ccc(Cl)cc2)c(=O)n3Cc2cccc(C)c2)C1 -9.49%, Cn1c(=O)oc2cc(S(=O)(=O)N3CCCC(C(=O)N4CCN(c5ccccc5F)CC4)C3)ccc21 (stereo unspecified) -17.5%, COc1cc(Nc2c(C#N)cnc3cc(OCCCN4CCN(C)CC4)c(OC)cc23)c(Cl)cc1Cl, Cc1ccc(Cn2c(=O)n(CC3CCC(C(=O)N4CCOCC4)CC3)c(=O)c3sccc32)cc1 (stereo unspecified) -7.38%, O=C(CC1Oc2ccc(Cl)cc2NC1=O)NCc1ccccc1 (stereo unspecified) -18%, CCOC(=O)CC(NC(=O)Cn1nnc(-c2ccc(C(F)(F)F)cc2)n1)c1ccc(C)cc1 (stereo unspecified) -21.9%, COc1ccc(NC(=O)N2CCc3c([nH]c4ccc(OC)cc34)C2c2ccc(OC)cc2)cc1 (stereo unspecified) -30.7%, COC(=O)c1cc2oc3ccccc3c2n1Cc1c(F)cccc1Cl -9.25%, CCc1cccc(NC(=O)CN2CCCN(Cc3cccc(C)c3)S2(=O)=O)c1 -6.28%, COc1ccc(N2CCN(C(=O)c3ccc4nc(N5CCC(C)CC5)sc4c3)CC2)cc1 -72%, Cc1ccc(Cl)cc1N(C)C(=O)c1cnc(N2CCOCC2)c2ccccc12 -12%, CCN(CC)C(=O)C1CCCN(c2ncnc3onc(C)c23)C1 (stereo unspecified) -19.5%, COc1cccc(-c2nc3c(C#N)c[nH]n3c2NC2CCCCC2)c1OC -0.149%, CC(NC(=O)c1sc2ncccc2c1-n1cccc1)c1ccccc1 (stereo unspecified) -14.7%, Cn1cnc(S(=O)(=O)N2CCCC(C(=O)Nc3cccc(C#N)c3)C2)c1 (stereo unspecified) -6.7%, Cc1ccc(CNCc2c(C(=O)O)c(C)n(Cc3ccc(C)cc3)c2C)cc1 -14.9%
